Data: PubChem BioAssay AID1508623 (National Center for Advancing Translational Sciences (NCATS), 2021)
Screen size: about 48,000 compounds; about 450 (0.94%) were called active. Roughly 19% stayed inconclusive and do not appear here. The call rests on the fitted dose curve; in most records, active means well fitted inhibition curve with a large enough effect; inconclusive means small, poorly fitted or top-dose-only effect; inactive means no such curve, though single readings can be large or run the other way. This is one part of the list.

assay: Primary qHTS for Identification of Small Molecule Inhibitors of Huntingtin Promoter Activity; details: HEK293 HTT promoter firefly luciferase reporter (activity 0% = vehicle and -100% = no light), 24 h; series mostly up to 57.5 µM; activity change, negative = inhibition: at the top concentration; further: nearly all actives have a fitted effect of over 50% in size
Method in brief: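 Quantitative HTS used concentration series of up to 57.5 uM final on HEK293 luciferase reporter cells, 24 h at 37 degrees C. Readout was Dual-Glo firefly luminescence.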

Row | SMILES | activity change, negative = inhibition
1 | Cc1c(C(=O)Nc2ccccc2F)sc2nc3n(c(=O)c12)CCC3 | inactive: 79.5%
2 | Cc1ccc(NC(=O)Cn2c(=O)n(CC(=O)NCCc3ccccc3)c(=O)c3ccccc32)cc1 | inactive: -2.84%
3 | CC1CCc2nc3ncn(Cc4cccc(F)c4)c(=O)c3cc2C1 (stereo not drawn) | inactive: 23.5%
4 | COc1ccc(CNC(=O)CCc2c(C)nc3c4cccnc4nn3c2C)cc1 | inactive: -13.5%
5 | COc1ccc(CC(=O)Nc2nnc3n2CCS3)cc1OC | inactive: -18.9%
6 | COc1ccc(C)cc1-n1c(SCC(=O)NCc2ccco2)nc2c([nH]c3ccccc32)c1=O | inactive: -16.6%
7 | CCCCN(CC)CCCNC(=O)c1nn(-c2ccc(OC)cc2)c(=O)c2c1c1ccccc1n2C | inactive: -4.72%
8 | CNC(=O)C1CCC(Cn2c(=O)c3sccc3n(CC(=O)Nc3ccccc3)c2=O)CC1 (stereo not drawn) | inactive: -71.7%
9 | Cc1ccc(CCNC(=O)CCCn2c(=O)c3cccn3c3ccc(F)cc32)cc1 | inactive: -12.3%
10 | CCCCN(CC)CCCNC(=O)c1sc2nc3n(c(=O)c2c1C)CCCCC3 | inactive: 8.64%
11 | COCCNC(=O)c1cc(-c2cccc(Cl)c2)on1 | inactive: 56.8%
12 | COc1cc2[nH]c(=O)n(CCCC(=O)N(C)Cc3ccccc3)c(=O)c2cc1OC | inactive: -14.5%
13 | CCOC(=O)c1ccc(N2C(=O)c3n[nH]c(C)c3C2c2ccc(CC)cc2)cc1 (stereo not drawn) | inactive: -24.7%
14 | COC(=O)c1cc2occc2n1Cc1nc(-c2ccc(Cl)cc2)oc1C | inactive: -7.72%
15 | CCc1ccc(S(=O)(=O)c2cn(C)c3ccc(C)cc3c2=O)cc1 | inactive: -22.3%
16 | CCOCCCNC(=O)CN1C(=O)CCn2nc(-c3cccn3C)cc21 | inactive: -19.9%
17 | COc1ccc(CN(CCN(C)C)c2ncccn2)cc1 | inactive: 2.72%
18 | Cc1cccn2c(=O)cc(COc3cccc(NC(=O)Nc4cccc(Cl)c4)c3)nc12 | inactive: 8.5%
19 | CC(C)c1ccc(NC(=O)[C@H]2O[C@@H]3OC(C)(C)O[C@@H]3[C@H]3OC(C)(C)O[C@H]32)cc1 | inactive: 9.93%
20 | Cc1nn(CC(=O)N2CCN(c3ccccc3F)CC2)c(=O)c2cccn12 | inactive: -7.47%
21 | CCN(CC)c1ccc2nc3c(=O)n(C)c(=O)n(C)c3nc2c1 | inactive: 21.2%
22 | COc1cc(C=CC(=O)O)ccc1O | inactive: -4.46%
23 | CCn1nc(C)c(CCN(C)C(=O)Nc2cc(Cl)c(OC)cc2OC)c1C | inactive: 5.3%
24 | CC(C)c1nn2c(=O)cc(COC(=O)c3cccc(NC(=O)CCc4ccccc4)c3)nc2s1 | inactive: 33.4%

Row | SMILES | activity change, negative = inhibition
25 | CCN(Cc1ccccc1)C(=O)Cn1c(=O)cc(C)c2c(C)nn(-c3cccc(F)c3)c21 | inactive: -26.1%
26 | CCOc1ccc(-c2nnc(SCC(=O)NC3CCCCC3)nc2-c2ccc(OCC)c(OC)c2)cc1OC | inactive: -9.94%
27 | COc1ccc(CNC(=O)CCn2c(=O)c3cccn3c3ccc(F)cc32)cc1OC | inactive: -3.18%
28 | CCN1C(=O)c2ccccc2S(=O)(=O)c2ccc(C(=O)NCc3ccc(C)cc3)cc21 | inactive: -13.1%
29 | CCc1ccc2occ(CC(=O)Nc3nnc(SC)s3)c2c1 | inactive: -15%
30 | CCS(=O)(=O)c1nc(S(=O)(=O)c2ccc(Cl)cc2)c(NCc2ccc(Cl)cc2)s1 | inactive: -25.2%
31 | COc1ccc(-c2ccc(=O)n(CC(=O)Nc3ccc(Br)cc3F)n2)cc1 | inactive: 7.26%
32 | Cn1c(=O)c2c(-c3ccccc3)n(-c3cccc(C#N)c3)cc2n(C)c1=O | inactive: -10.5%
33 | O=C(O)c1ccc(Nc2ncnc3scc(-c4ccccc4)c23)cc1 | inactive: -15.9%
34 | CCC(C(=O)NCc1ccccc1Cl)n1c(=O)c2cccn2c2ccccc21 (stereo not drawn) | inactive: -12.8%
35 | Cc1cc2c(OCC(CNC(C)(C)C)OC(=O)c3ccccc3)cccc2[nH]1 (stereo not drawn) | inactive: -7.79%
36 | COC(=O)c1cc(OC)c(OC)cc1NC(=O)c1ccc2c(c1)CCN2S(C)(=O)=O | inactive: -11.1%
37 | O=C(NCc1ccccc1)c1c2c(nc3ccccc13)C(=O)N(C1CCCCC1)C2 | inactive: -13.2%
38 | O=C(Nc1cccc(-c2nc3ccccc3o2)c1)c1cccc(Br)c1 | inactive: -18.9%
39 | CCOC(=O)c1c(Nc2cc(C)cc(C)c2)nnc(-c2ccccc2)c1-c1ccccc1 | inactive: -27.3%
40 | O=C(NCC(c1cccnc1)N1CCc2ccccc2C1)C(=O)Nc1ccccc1 (stereo not drawn) | inactive: -14.1%
41 | COc1ccccc1N1CCN(S(=O)(=O)c2c(C)nc3sc(C)c(C)n3c2=O)CC1 | inactive: -11%
42 | CC(=O)CC(c1ccc([N+](=O)[O-])cc1)c1c(O)c2ccccc2oc1=O (stereo not drawn) | inactive: -5.17%
43 | Cn1nc(-c2ccc(C(=O)Nc3cccc(C(F)(F)F)c3)cc2)c2ccccc2c1=O | inactive: -0.256%
44 | CCCCCCCCNC(C)C(O)c1ccc(SC(C)C)cc1 (stereo not drawn) | inactive: 1.9%
45 | O=C(Nc1ccc(F)cc1F)c1cnn(-c2ccc(F)cc2)c1-n1cccc1 | inactive: -30.5%
46 | CCOc1ccccc1NC(=O)CN1c2ccccc2S(=O)(=O)c2ccccc21 | inactive: -16.8%
47 | Cc1ccc(CNC(=O)c2cc(S(=O)(=O)N3CCCCCC3)cn2C)cc1 | inactive: -21.2%
48 | COc1ccc(CNS(=O)(=O)c2cnc(N)nc2)cc1 | inactive: -4.61%
